The chains are these.
B1: glmS ribozyme (parent)
chain: AUAAAAGCGCCAGAACUACAGAAAUGUAGUUGACGAGGAGGAGGUUUAUCGAAUUUUCGGCGGAUGCCUCCAAA

What all share (conditions): with glucosamine-6-phosphate
In data set [1] the parent is B1. The experiment in a line: self-cleavage kobs at 640 uM GlcN6P; higher = faster cleavage; RNA array. Put shortly: (§1)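 On sequenced MiSeq chips, barcoded ribozyme variants were made in situ by E. coli RNA polymerase and followed at 37 °C through a hybridised Cy3 probe. Glucosamine-6-phosphate was flowed in at 40 μM to 10 mM in HEPES/KCl/Mg(OAc)2 buffer. Exponential fits to normalised per-tile medians gave kobs, and weighted Michaelis–Menten fits gave kcat and KM.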

Data set [2] covers variants of B1. The data set can be described thus: self-cleavage kobs at 2500 uM GlcN6P; higher = faster cleavage; RNA array. Put shortly: as §1
Variants of B1 are the subject of data set [3]. The experiment in a line: self-cleavage kobs at 10000 uM GlcN6P; higher = faster cleavage; RNA array. Put shortly: as §1
In data set [4] the parent is B1. The data set can be described thus: self-cleavage kobs at 160 uM GlcN6P; higher = faster cleavage; RNA array. Put shortly: as §1

± gives the standard error. Variants at the background level are over-represented here.

Regarding AUAAAAGCGCCACAACUACAGAAAUGUAGUUGACGAGGAGGAGGUUUUUUGAAUUUUCGGCGGAUGCCUCCAAA, the “self-cleavage kobs at 640 uM GlcN6P” value in data set [1] was under 1e-05 s⁻¹. Also, the “self-cleavage kobs at 2500 uM GlcN6P” value in data set [2] is under 1e-05 s⁻¹.

AUAAAAGCGCCACAACUACAGAAAUGUAGUUGACGAGGACGAGGUUUGUCGAAUUUUCGGGGGAUGCCUACAAA: in data set [1], the “self-cleavage kobs at 640 uM GlcN6P” value is under 1e-05 s⁻¹. In data set [2], the “self-cleavage kobs at 2500 uM GlcN6P” value was under 1e-05 s⁻¹.

Regarding AUAAAAGCGCCACAACUACAGAAAUGUAGUUGACGAGGAGGCGGUUUAUCGAAUUUUCUGCGGAUGCCUCCAAA, the “self-cleavage kobs at 640 uM GlcN6P” value in data set [1] was under 1e-05 s⁻¹.

For the variant AUAAAAGCGCCACCACUACAGAAAUGUAGUUGACGAGGAGGAGGUUUAUCGAAUUUUCGGAGGAUGUCUCCAAA, the “self-cleavage kobs at 640 uM GlcN6P” value in data set [1] is 4.47e-05 ± 1.8e-05 s⁻¹.

For AUAAAAGCGCCAAAACUACAGAAAUGUAGUUGACGAAGAGGAGGUUUAUCGAAUUUUCGGCGGAUCCCUCCAAA, in data set [1], the “self-cleavage kobs at 640 uM GlcN6P” value is under 1e-05 s⁻¹.

On to AUAAAAGCGCCACAACUACAGAAAUGUAGUUGACGAGGAGGAGGUUAAUCGAAUUUUCGGCGCAUGCCUCCAAA, for which the “self-cleavage kobs at 640 uM GlcN6P” value in data set [1] was under 1e-05 s⁻¹. For the same variant, the “self-cleavage kobs at 2500 uM GlcN6P” value in data set [2] was under 1e-05 s⁻¹.

As to AUAAAAGCGCCAUAACUACAGAAAUGUAGUUGACGAGGAGUAGGUUUAUCGAAUUUUCGGCGGAUGUCUCCAAA, the “self-cleavage kobs at 640 uM GlcN6P” value in data set [1] is under 1e-05 s⁻¹. Also, in data set [2], the “self-cleavage kobs at 2500 uM GlcN6P” value is under 1e-05 s⁻¹. In addition, the “self-cleavage kobs at 10000 uM GlcN6P” value in data set [3] was under 1e-05 s⁻¹.

AUAAAAGCGCCAAAACUACAGAAAUGUAGUUGACUAGGAGGAGGUUUAUUGAAUUUUCGGCGGAUGCCUCCAAA: in data set [1], the “self-cleavage kobs at 640 uM GlcN6P” value is under 1e-05 s⁻¹.

On to AUAAAAGCGCCAGCACUACAGAAAUGUAGUUGACGAGGAGGAGGUUUAUCGUAUUUUCGGAGGAUGCCUCCAAA, for which the “self-cleavage kobs at 640 uM GlcN6P” value in data set [1] is under 1e-05 s⁻¹. In addition, the “self-cleavage kobs at 160 uM GlcN6P” value in data set [4] is under 1e-05 s⁻¹.

Regarding AUAAAAGCGCCAUAACUACAGAAAUGUAGUUGACGAGGAGGAGGUUUAUCGAAUUGUCGGCGGAUGCCUGCAAA, in data set [1], the “self-cleavage kobs at 640 uM GlcN6P” value turned out to be 6.47e-05 ± 3.1e-05 s⁻¹. In addition, the “self-cleavage kobs at 2500 uM GlcN6P” value in data set [2] came out at 4.09e-05 ± 1.9e-05 s⁻¹.

For the variant AUAAAAGCGCCAUAACUACAGAAAUGUAGUUUACGAGGAGGAGGUUUAUCCAAUUUUCAGCGGAUGCCUCCAAA, in data set [1], the “self-cleavage kobs at 640 uM GlcN6P” value is under 1e-05 s⁻¹. For the same variant, in data set [4], the “self-cleavage kobs at 160 uM GlcN6P” value is under 1e-05 s⁻¹. Also, in data set [2], the “self-cleavage kobs at 2500 uM GlcN6P” value was under 1e-05 s⁻¹.

Consider AUAAAAGCGCCAUAACUACAGAAAUGUAGUUGAGGAGGAGGAGGCUAAUCGAAUUUUCGGCGGAUGCCUCCAAA, for which the “self-cleavage kobs at 640 uM GlcN6P” value in data set [1] was under 1e-05 s⁻¹. In addition, the “self-cleavage kobs at 2500 uM GlcN6P” value in data set [2] was under 1e-05 s⁻¹.

For AUAAAAGCGCCAGCAGUACAGAAAUGUAGUUGACGAGGAGGAGGUUUAUCGAAUUUUCGGCGGAUGCCUCCAAA, the “self-cleavage kobs at 640 uM GlcN6P” value in data set [1] worked out at 4.86e-05 ± 1.2e-05 s⁻¹. In addition, the “self-cleavage kobs at 2500 uM GlcN6P” value in data set [2] was found to be 8.11e-05 ± 8.9e-06 s⁻¹. In data set [3], the “self-cleavage kobs at 10000 uM GlcN6P” value turned out to be 7.9e-05 ± 6.9e-06 s⁻¹.

With AUAAAAGCGCCAAAACUACAGAAAUGUAGUAGUCGAGGAGGAGGUUUAUCGAAUUUUCGGCGGAUGCCUUCAAA, in data set [1], the “self-cleavage kobs at 640 uM GlcN6P” value is under 1e-05 s⁻¹. Besides, the “self-cleavage kobs at 160 uM GlcN6P” value in data set [4] is under 1e-05 s⁻¹. Also, the “self-cleavage kobs at 2500 uM GlcN6P” value in data set [2] is under 1e-05 s⁻¹.

Consider AUAAAAGCGCCACAACUACAGAAAUGUAGUUGACGAGGAGUAGGUUUAUCGAAUUUUCGGCGGAUGCCUCUAAA, for which the “self-cleavage kobs at 640 uM GlcN6P” value in data set [1] is under 1e-05 s⁻¹.

With AUAAAAGCGCCAUUACUACAGAAAUGUAGUUGACGAGGAGGAGGUUUUUCGAAUUUUCGGCGGAUGCCUCCAAA, the “self-cleavage kobs at 640 uM GlcN6P” value in data set [1] is under 1e-05 s⁻¹.

Take AUAAAAGCGCCAAAACUACAGAAAUGUAGUUGACAAGGAGGAGGUAUAUCGAAUUUUCGGCGGAUGCCUCCAAA: the “self-cleavage kobs at 640 uM GlcN6P” value in data set [1] was under 1e-05 s⁻¹. Moreover, in data set [4], the “self-cleavage kobs at 160 uM GlcN6P” value was under 1e-05 s⁻¹. Besides, the “self-cleavage kobs at 2500 uM GlcN6P” value in data set [2] is under 1e-05 s⁻¹.

As to AUAAAAGCGCCACAACUACAGAAAUGUAUUUGACGAGGAGGAGGUUUAUCGAAUUUUCGGCGGAUGCCUCCAAA, in data set [1], the “self-cleavage kobs at 640 uM GlcN6P” value is 3.22e-05 ± 1.3e-05 s⁻¹. Further, the “self-cleavage kobs at 2500 uM GlcN6P” value in data set [2] is 6.58e-05 ± 8.4e-06 s⁻¹. In addition, the “self-cleavage kobs at 10000 uM GlcN6P” value in data set [3] came out at 0.000125 ± 1.6e-05 s⁻¹.

Regarding AUAAAAGCGCCAUAACUACAGAAAUGUAUUUGACGAGGGGGAGGUUUAUCGAAUUUUCGGCGGAUGCCUCCAAA, in data set [1], the “self-cleavage kobs at 640 uM GlcN6P” value was 0.000115 ± 2.8e-05 s⁻¹. The “self-cleavage kobs at 2500 uM GlcN6P” value in data set [2] was 7.21e-05 ± 2.3e-05 s⁻¹.

(Values after the supplement of paper PMC7125110.)
